Reference: paper PMC7719147
Results are given in words; binding and its absence hold for the method and conditions named. In cells and extracts the contact can be indirect. Some results given as binding are weak or reduced against the parent protein; the word gives no strength. Tags and fused reporters may be left off the sequences shown.

Chains of the proteins cited; added tags and fusions are not shown. Residues count along the entry.
UniProt P03470: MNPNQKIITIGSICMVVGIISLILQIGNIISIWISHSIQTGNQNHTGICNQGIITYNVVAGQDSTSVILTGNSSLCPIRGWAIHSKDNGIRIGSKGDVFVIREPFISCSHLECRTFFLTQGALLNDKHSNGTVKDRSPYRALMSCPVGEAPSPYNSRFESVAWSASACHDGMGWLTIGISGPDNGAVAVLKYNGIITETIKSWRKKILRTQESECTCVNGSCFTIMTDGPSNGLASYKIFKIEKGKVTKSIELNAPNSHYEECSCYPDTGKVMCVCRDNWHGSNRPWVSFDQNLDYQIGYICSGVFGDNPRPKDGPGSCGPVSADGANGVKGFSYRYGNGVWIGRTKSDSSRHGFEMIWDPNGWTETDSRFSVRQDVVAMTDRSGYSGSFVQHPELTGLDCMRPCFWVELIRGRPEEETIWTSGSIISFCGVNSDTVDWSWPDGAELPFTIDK
UniProt P03430: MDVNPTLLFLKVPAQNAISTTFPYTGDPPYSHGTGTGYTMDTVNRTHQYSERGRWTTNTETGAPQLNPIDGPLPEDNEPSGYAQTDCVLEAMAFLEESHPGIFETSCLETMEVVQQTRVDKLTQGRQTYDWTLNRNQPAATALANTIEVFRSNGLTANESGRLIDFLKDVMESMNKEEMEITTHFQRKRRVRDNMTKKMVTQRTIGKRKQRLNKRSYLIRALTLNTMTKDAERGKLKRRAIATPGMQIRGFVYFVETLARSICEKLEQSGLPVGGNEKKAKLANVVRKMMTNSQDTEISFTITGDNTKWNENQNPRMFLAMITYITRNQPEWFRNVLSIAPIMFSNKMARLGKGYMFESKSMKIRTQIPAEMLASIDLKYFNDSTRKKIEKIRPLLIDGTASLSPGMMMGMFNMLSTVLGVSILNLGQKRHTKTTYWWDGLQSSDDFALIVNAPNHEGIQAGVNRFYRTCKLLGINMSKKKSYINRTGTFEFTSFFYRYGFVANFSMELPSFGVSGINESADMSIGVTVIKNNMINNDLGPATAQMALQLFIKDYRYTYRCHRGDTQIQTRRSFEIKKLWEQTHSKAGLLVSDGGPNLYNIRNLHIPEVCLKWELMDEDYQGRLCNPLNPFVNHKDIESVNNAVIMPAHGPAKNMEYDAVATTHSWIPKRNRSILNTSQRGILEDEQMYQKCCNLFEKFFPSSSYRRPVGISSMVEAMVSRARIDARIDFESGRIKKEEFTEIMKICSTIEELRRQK
UniProt Q7Z434: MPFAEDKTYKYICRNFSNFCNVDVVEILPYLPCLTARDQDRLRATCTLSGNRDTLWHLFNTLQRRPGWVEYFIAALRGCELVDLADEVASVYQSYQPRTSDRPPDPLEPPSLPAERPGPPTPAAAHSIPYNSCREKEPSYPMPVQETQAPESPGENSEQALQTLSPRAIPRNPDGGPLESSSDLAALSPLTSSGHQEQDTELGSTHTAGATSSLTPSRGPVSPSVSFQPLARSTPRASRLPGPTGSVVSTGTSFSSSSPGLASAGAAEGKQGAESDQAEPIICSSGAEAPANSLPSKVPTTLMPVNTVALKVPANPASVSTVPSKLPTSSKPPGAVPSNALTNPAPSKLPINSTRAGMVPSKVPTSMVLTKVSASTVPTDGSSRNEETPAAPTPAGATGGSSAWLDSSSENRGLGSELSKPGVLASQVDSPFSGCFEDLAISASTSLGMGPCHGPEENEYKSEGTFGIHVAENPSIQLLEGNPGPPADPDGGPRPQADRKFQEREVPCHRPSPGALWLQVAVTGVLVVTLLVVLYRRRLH
UniProt P15682: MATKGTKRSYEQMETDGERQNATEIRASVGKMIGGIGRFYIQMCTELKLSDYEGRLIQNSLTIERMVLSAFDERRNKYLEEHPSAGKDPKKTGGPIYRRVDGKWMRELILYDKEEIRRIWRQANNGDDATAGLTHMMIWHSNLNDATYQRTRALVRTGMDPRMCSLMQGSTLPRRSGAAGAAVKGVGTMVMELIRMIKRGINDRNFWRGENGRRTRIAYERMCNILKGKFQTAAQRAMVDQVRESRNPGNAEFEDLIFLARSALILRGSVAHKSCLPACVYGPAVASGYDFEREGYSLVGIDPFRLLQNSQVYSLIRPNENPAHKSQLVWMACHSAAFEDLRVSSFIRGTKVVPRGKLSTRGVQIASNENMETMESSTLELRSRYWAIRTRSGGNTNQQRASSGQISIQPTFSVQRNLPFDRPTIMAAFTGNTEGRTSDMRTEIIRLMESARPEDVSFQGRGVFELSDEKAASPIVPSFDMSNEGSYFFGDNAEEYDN
UniProt P03427: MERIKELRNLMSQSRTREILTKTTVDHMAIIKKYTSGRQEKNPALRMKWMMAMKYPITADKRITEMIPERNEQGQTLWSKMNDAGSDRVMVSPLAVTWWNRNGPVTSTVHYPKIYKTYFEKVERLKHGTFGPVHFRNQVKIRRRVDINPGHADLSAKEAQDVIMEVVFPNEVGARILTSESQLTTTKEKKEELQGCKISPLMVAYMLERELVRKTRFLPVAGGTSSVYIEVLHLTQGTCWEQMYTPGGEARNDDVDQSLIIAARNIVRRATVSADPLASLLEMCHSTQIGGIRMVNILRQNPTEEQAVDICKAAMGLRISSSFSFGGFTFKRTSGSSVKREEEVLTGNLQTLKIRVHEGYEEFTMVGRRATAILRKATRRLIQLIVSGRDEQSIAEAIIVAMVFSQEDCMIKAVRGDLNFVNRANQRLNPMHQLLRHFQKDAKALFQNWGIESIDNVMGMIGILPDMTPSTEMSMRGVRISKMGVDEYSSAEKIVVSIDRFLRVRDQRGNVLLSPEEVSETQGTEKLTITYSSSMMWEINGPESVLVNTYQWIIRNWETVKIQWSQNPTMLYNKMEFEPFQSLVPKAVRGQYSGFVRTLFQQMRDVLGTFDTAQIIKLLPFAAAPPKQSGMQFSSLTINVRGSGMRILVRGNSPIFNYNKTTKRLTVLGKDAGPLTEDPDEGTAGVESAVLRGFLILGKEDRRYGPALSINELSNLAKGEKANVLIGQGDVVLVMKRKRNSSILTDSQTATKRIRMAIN
UniProt P05777: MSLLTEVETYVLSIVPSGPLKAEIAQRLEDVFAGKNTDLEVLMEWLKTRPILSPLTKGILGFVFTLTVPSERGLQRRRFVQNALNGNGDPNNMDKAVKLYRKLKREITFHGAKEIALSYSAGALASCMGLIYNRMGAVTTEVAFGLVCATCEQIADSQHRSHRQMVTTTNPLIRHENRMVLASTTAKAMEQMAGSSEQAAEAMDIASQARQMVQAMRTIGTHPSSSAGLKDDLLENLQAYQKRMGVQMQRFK
UniProt P03454, residues 18-565: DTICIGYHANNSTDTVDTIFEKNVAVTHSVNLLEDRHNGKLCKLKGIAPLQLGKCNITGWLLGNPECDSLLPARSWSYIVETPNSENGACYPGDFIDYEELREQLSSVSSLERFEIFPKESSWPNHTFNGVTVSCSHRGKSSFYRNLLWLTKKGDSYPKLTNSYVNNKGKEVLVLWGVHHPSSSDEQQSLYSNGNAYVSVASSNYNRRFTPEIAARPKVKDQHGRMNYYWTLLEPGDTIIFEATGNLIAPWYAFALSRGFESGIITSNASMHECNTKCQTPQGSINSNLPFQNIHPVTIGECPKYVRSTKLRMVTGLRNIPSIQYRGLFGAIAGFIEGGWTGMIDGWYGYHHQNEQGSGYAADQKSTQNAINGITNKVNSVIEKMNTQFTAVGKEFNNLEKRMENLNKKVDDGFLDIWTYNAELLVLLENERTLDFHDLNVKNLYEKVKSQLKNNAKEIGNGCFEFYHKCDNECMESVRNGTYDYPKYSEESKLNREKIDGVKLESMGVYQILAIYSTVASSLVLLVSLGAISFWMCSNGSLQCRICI

Target: T1, TRIM35-V5 (tripartite motif containing 35, V5-tagged) (human) (UniProt Q9UPQ4)
T1 sequence: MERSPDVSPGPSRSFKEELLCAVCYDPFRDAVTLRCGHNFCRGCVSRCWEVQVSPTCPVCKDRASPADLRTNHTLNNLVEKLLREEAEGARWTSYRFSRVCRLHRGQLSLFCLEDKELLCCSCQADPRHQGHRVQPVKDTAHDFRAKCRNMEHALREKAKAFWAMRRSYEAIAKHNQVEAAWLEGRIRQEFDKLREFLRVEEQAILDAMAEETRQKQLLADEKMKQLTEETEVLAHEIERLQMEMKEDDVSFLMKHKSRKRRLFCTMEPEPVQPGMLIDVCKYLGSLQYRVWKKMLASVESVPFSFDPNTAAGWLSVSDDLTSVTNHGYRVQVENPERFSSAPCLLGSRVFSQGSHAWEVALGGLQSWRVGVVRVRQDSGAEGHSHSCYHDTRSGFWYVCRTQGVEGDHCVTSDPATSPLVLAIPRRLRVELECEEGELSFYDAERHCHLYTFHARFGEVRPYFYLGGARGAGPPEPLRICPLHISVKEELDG
Test: co-IP

| Substance | binding |
| --- | --- |
| WSN (H1N1) NA, Flag-tagged (from UniProt P03470 1-453) | no binding |
| WSN (H1N1) PB1 (polymerase basic protein 1) (from UniProt P03430 1-757) | no binding |
| VISA-Flag (virus-induced signaling adapter, Flag-tagged) (from UniProt Q7Z434 1-540) | no binding |
| WSN (H1N1) NP (nucleoprotein) (from UniProt P15682 1-498) | no binding |
| WSN (H1N1) PB2 (polymerase basic protein 2), expressed from pCAGGS (from UniProt P03427 1-759) | binds |
| WSN (H1N1) M1, Flag-tagged (from UniProt P05777 1-252) | no binding |
| WSN (H1N1) HA, Flag-tagged (from UniProt P03454) | no binding |
